Read counts are not given, so values of variants with three or more changes are uncertain.
B1: LINE1-mini (parent)
chain: GGCAGAGCUCAACACAGCGUGGCAAAGUGGCUGUGGCUAGACUGCC

Variants of: B1
Test: self-cleavage, relative activity (ratio to wild type); higher = more cleavage; in vitro, sequencing; the parent is a self-cleaving ribozyme

Row | Variant | self-cleavage
1 | GGCAGAGCUCAACACAGCGUGUCUAAGAGGCUGUGGCUAGACUGCG [G22U A24U U28A C46G] | 0.64
2 | GGCAGAGCUCAACACAGCGUGCCAAAAUGGCUAUGGCUAGCCUGCC [G22C G27A G33A A41C] | 0.08
3 | GGCAGAGCUCAACACAGCGUGUCAAAGUCGCUGUGGCCAGACUGCC [G22U G29C U38C] | 0.12
4 | GGCAGAGCUCAACACAGCGUGUCAAAGUGGGUGUGGCUACACUGCC [G22U C31G G40C] | 0.03
5 | GGCAGAGCUCAACACAGCGUGUCAAAGUGGCUGUGGCUUGACUCCG [G22U A39U G44C C46G] | 0.1
6 | GGCAGAGCUCAACACAGCGUGUCAAAGUGGGUGUGUCUAGACUGCC [G22U C31G G36U] | 0.06
7 | GGCAGAGCUCAACACAGCGUGUCAAAGUGGCUAUCGCUAGACUGCU [G22U G33A G35C C46U] | 0.05
8 | GGCAGAGCUCAACACAGCGUGCCAAAGUUGCAGUGGCUAGACUGCC [G22C G29U U32A] | 0.05
9 | GGCAGAGCUCAACACAGCGUGCCAAAGUGGCAGUGGCUAGAAUGCC [G22C U32A C42A] | 0.06
10 | GGCAGAGCUCAACACAGCGUGUCAAAGUGGCUGUGACUAGACCGCC [G22U G36A U43C] | 0.34
11 | GGCAGAGCUCAACACAGCGUGUAAAAGUGGCUGUGGCUAGACUGCA [G22U C23A C46A] | 0.84
12 | GGCAGAGCUCAACACAGCGUGUUUAAGUUGCUGUGGCUAGACUACC [G22U C23U A24U G29U G44A] | 0.12
13 | GGCAGAGCUCAACACAGCGUGUCAAAGUUGCUGCGGCUAGACUGCC [G22U G29U U34C] | 0.25
14 | GGCAGAGCUCAACACAGCGUGUCAAAGUGGCUGUGGGUAGAAUGCC [G22U C37G C42A] | 0.02
15 | GGCAGAGCUCAACACAGCGUGUGAAAGUGGCUGUGGAUAGACUGCC [G22U C23G C37A] | 0.04
16 | GGCAGAGCUCAACACAGCGUGUCAACGUGGCUGUGGCUAGUCCGCC [G22U A26C A41U U43C] | 0.07
17 | GGCAGAGCUCAACACAGCGUGCCAAAGUGGCUGUUGGUAGACUGCC [G22C G35U C37G] | 0.03
18 | GGCAGAGCUCAACACAGCGUGUCCAAGUGGCUGUGGCUAGAUUGCC [G22U A24C C42U] | 0.28
19 | GGCAGAGCUCAACACAGCGUGCCAAACUGGCAGUGGCUAGACUGCC [G22C G27C U32A] | 0.08

Row | Variant | self-cleavage
20 | GGCAGAGCUCAACACAGCGUGUAAAAGUGGCUGUGGCUAGACUGGC [G22U C23A C45G] | 0.9
21 | GGCAGAGCUCAACACAGCGUGUCAAAGUGGCUCUGGCUAGACUGCG [G22U G33C C46G] | 0.02
22 | GGCAGAGCUCAACACAGCGUGCCAAAGUUGCUGUGGCUCGACUGCA [G22C G29U A39C C46A] | 0.04
23 | GGCAGAGCUCAACACAGCGUGCCAAAGUGGCUGUGGCUAUACUUCC [G22C G40U G44U] | 0.08
24 | GGCAGAGCUCAACACAGCGUGCCAAAGUGCCUGUGGCUUGACUGCC [G22C G30C A39U] | 2.36
25 | GGCAGAGCUCAACACAGCGUGCCAAAGUGACUGUGGCUAGACUCCC [G22C G30A G44C] | 0.09
26 | GGCAGAGCUCAACACAGCGUGCCAAAGUGGCUGUGUCUGGACUGCC [G22C G36U A39G] | 0
27 | GGCAGAGCUCAACACAGCGUGUCAAAGUGGCUGUGGCUAGACUGAA [G22U C45A C46A] | 0.5
28 | GGCAGAGCUCAACACAGCGUGUCCAACUGGCUGUGGCUAGACUGGC [G22U A24C G27C C45G] | 0.04
29 | GGCAGAGCUCAACACAGCGUGCCAAAGUGGCUGUGUCUAGACUUCC [G22C G36U G44U] | 0.13
30 | GGCAGAGCUCAACACAGCGUGUCAAAAUGGCUGUGGCUAGACUGCA [G22U G27A C46A] | 1.62
31 | GGCAGAGCUCAACACAGCGUGUCAAAUUGGCUGUGGCUAGACUGUC [G22U G27U C45U] | 0.74
32 | GGCAGAGCUCAACACAGCGUGUCAAAUUGGCUGUGGCUAUACUGCC [G22U G27U G40U] | 0.13
33 | GGCAGAGCUCAACACAGCGUGUCAAAGUGGCUGUGCCUAAACUGCC [G22U G36C G40A] | 0.12
34 | GGCAGAGCUCAACACAGCGUGUGAAAGUGGCCGUGGAUAGACUGCC [G22U C23G U32C C37A] | 0.1
35 | GGCAGAGCUCAACACAGCGUGCCAAAGAGGCUGUGGCUAGAUUGCC [G22C U28A C42U] | 0.07
36 | GGCAGAGCUCAACACAGCGUGCCAAAGUGGCUGUGACUUGACUGCC [G22C G36A A39U] | 0.1
37 | GGCAGAGCUCAACACAGCGUGUAAAAGUGGCUGUGGCUAUACUGCC [G22U C23A G40U] | 0.05
38 | GGCAGAGCUCAACACAGCGUGUCAAAAUGGCUGUGGCUAGACUUCC [G22U G27A G44U] | 0.09

Row | Variant | self-cleavage
39 | GGCAGAGCUCAACACAGCGUGUCAAUGUGGCUGUGGAUAGACUGGC [G22U A26U C37A C45G] | 0.03
40 | GGCAGAGCUCAACACAGCGUGUCAAAGUGGUUGUAACAAGACUGAU [G22U C31U G35A G36A U38A C45A C46U] | 0.07
41 | GGCAGAGCUCAACACAGCGUGUCAAAGUGGCUGUGCCUAGACUUCC [G22U G36C G44U] | 0.09
42 | GGCAGAGCUCAACACAGCGUGUCAAAGUGGUUAUGGAUAGACUGCC [G22U C31U G33A C37A] | 0.05
43 | GGCAGAGCUCAACACAGCGUGUCAAAGUGGCUGUGGAUACACUGCC [G22U C37A G40C] | 0.01
44 | GGCAGAGCUCAACACAGCGUGCCAAAUUGGCUGUGGCUAGACUGUC [G22C G27U C45U] | 0.4
45 | GGCAGAGCUCAACACAGCGUGUCAAAGUGGCUGUGGCUAGGCUGUC [G22U A41G C45U] | 1.03
46 | GGCAGAGCUCAACACAGCGUGCCAAAGUAGCUGUGGCUAUACUGCC [G22C G29A G40U] | 0.03
47 | GGCAGAGCUCAACACAGCGUGCCAAAGUGGCGGUGGCUAGACUACC [G22C U32G G44A] | 0.11
48 | GGCAGAGCUCAACACAGCGUGUCAUAGUGGCUGUGGCUGGACUGCC [G22U A25U A39G] | 0.06
49 | GGCAGAGCUCAACACAGCGUGUCAAAGUGCCUGUGGCUAGAAUGCC [G22U G30C C42A] | 0.03
50 | GGCAGAGCUCAACACAGCGUGUCAAAGUGGGUGUGGCUAGACUGCA [G22U C31G C46A] | 0.09
51 | GGCAGAGCUCAACACAGCGUGCCAAAGUGGCUGUGAAUAGACUGCC [G22C G36A C37A] | 0.19
52 | GGCAGAGCUCAACACAGCGUGCCAAAGUCGCUGUGUGUAGACUGCC [G22C G29C G36U C37G] | 0
53 | GGCAGAGCUCAACACAGCGUGUCAAAGUGGCUGUAGAUAGACUGCC [G22U G35A C37A] | 0.33
54 | GGCAGAGCUCAACACAGCGUGUAAAAGUGACUGUGGCUAGACUGCA [G22U C23A G30A C46A] | 1.82
55 | GGCAGAGCUCAACACAGCGUGUCAAAGUGACUGUGGCUAGACCGCC [G22U G30A U43C] | 0.24
56 | GGCAGAGCUCAACACAGCGUGCCAAAGCGGCUGUGGCUAGAGUACC [G22C U28C C42G G44A] | 0.01

From the RNAGym collection of RNA variant scans (doi:10.7554/elife.90254)
